The results in this text go back to the supplement of paper PMC10126150.

Values marked as one replicate rest on one cluster of the flow cell; about a third of the high ones do not repeat.

This data set relates to ATP. Kind of data set: switch fluorescence ratio, 500 uM ATP over buffer (Cy3 cluster intensity, sum of 5 cycles each) (fold (ratio)); higher = stronger signal-on switching upon ATP binding; sequences stand for … in TCGTCGGCAGCGTCAGATGTGTATAAGAGACAGTTTTTTTTTTTTTTTTTTTTTTTTT…TC. The conditions noted are these: aptamer strand: ATP DNA aptamer (quencher-CACCTGGGGGAGTATTGCGGAGGAAGG + anchor), 100 nM annealed; ATP concentration: 500 uM; one replicate. Summed up: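 Exposure to 500 uM ATP lasted 15 min at 22 °C before imaging, and a selection-buffer image was taken beforehand, for Cy3-labelled switching-strand clusters on a modified Illumina MiSeq flow-cell annealed to 100 nM quencher-labelled ATP aptamer. Five buffer/ATP cycles were run with NaOH stripping and re-annealing between them. The fluorescence ratio per cluster is summed target-cycle over summed buffer-cycle Cy3 intensity, averaged per switch-domain sequence. Clusters outside 100-1000 RFU were excluded.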
In the case of AAGCCCATGC, the switch fluorescence ratio turned out to be 1.04.
The same measure for GCTTGAAAGG: 1.02.
Consider AATTATTTAG, for which the switch fluorescence ratio is 0.981.
With ACAGGAGGC, the switch fluorescence ratio turned out to be 0.94.
The same measure for GAATGCCCGG: 0.94; for ATGGATCTTT: 0.991; for TCGGGGACGA: 1.03.
The same measure for CTAATTGGAA: 0.946; for CAATCTGATC: 1.03; for TAGCGCCGTT: 1.05.
As to ATCAAGAATT, the switch fluorescence ratio was found to be 1.01.
With GCCAGGGTAG the figure was 1.03; with TGCGACAGGA, 1.03.
Take TTACCGGGTA: the switch fluorescence ratio was found to be 1.02.
With TCGATTGCGC, the switch fluorescence ratio is 0.995.
With AAGGTTATTT, the switch fluorescence ratio was 1.02.
Turning to CGCCTCTATA, the switch fluorescence ratio is 1.05.
With TGTCGCTTCG, the switch fluorescence ratio worked out at 1.
In the case of AAAATGTTTA, the switch fluorescence ratio was determined as 1.07.
On to GGATGATAAG, for which the switch fluorescence ratio came to 0.953.
Turning to GGATTTATCA, the switch fluorescence ratio amounted to 0.974.
CTACATCTGG: the switch fluorescence ratio came to 0.967.
For the sequence CATGGACTTC, the switch fluorescence ratio was determined as 1.06.
Regarding GTCAGGCTTA, the switch fluorescence ratio came out at 1.
For the sequence ATGGTAGTC, the switch fluorescence ratio stood at 0.936.
TTGAAGATTA: the switch fluorescence ratio stood at 0.964.
As for ATCCAGGTCC, the switch fluorescence ratio worked out at 1.08.
Turning to AGTTGAACAG, the switch fluorescence ratio came out at 0.977.
With ATGCTATAGG, the switch fluorescence ratio came out at 1.01.
Regarding ACTCTCGTT, the switch fluorescence ratio stood at 1.04.
CATGAGCTTG: the switch fluorescence ratio is 0.981.
For GGCGGAAGGA, the switch fluorescence ratio stood at 1.03.
For the sequence TGCAGCACCG, the switch fluorescence ratio came to 1.01.
Consider AATTATTGGA, for which the switch fluorescence ratio was found to be 0.955.
For CGGCAGCCGT, the switch fluorescence ratio amounted to 1.08.
With GCTCTCTTCC the figure was 1.78.
On to TATCCTAGAA, for which the switch fluorescence ratio was determined as 1.
For the sequence TTCCAATAAC, the switch fluorescence ratio amounted to 1.26.
Consider CCTTATGTCC, for which the switch fluorescence ratio amounted to 1.01.
With CAGCGGGAG, the switch fluorescence ratio stood at 0.993.
TAGCACTCTA: the switch fluorescence ratio worked out at 1.08.
Turning to AATGAGGAAC, the switch fluorescence ratio turned out to be 0.972.
For the sequence TGTTGCCG, the switch fluorescence ratio was 1.04.
For CTTTCCGTTA, the switch fluorescence ratio is 1.23.
For the sequence AATTGGCCAC, the switch fluorescence ratio is 1.01.
For TTTACACTTT, the switch fluorescence ratio was 0.968.
Consider GCGTGTGGGA, for which the switch fluorescence ratio is 1.05.
With ATTCTTGAAG the figure was 0.984; with AATGGGCTTA, 0.957.
In the case of TGGCGCTTAG, the switch fluorescence ratio was found to be 0.968.
Turning to AAGTAGCAGC, the switch fluorescence ratio was found to be 1.05.
With ACGCGTGCGG the figure was 0.991; with ATAGGCTTTT, 0.974; with GGCTCGCCCC, 1.04.
With ATGAGGTCAA, the switch fluorescence ratio turned out to be 1.05.
The same measure for GGATGTCGGT: 1.01; for TGCTGAGTCG: 1.02.
As to CCTATGTTGC, the switch fluorescence ratio amounted to 1.32.
Consider GAATGAGTCA, for which the switch fluorescence ratio was 0.976.
With CTTGTTACTT the figure was 0.991; with TAGTCCGGTT, 1.03.
With GTTGTC the figure was 0.943; with CGCCACGTAT, 1.05; with CTACTCTGAT, 0.978.
As to CATGACTCAG, the switch fluorescence ratio turned out to be 1.01.
With AAGTGGACAG the figure was 0.989; with GTCATCCCCT, 1.04; with CCAATGGAGA, 1.02.
On to AGAGTAGCAG, for which the switch fluorescence ratio is 0.974.
With ATCTATATGG the figure was 0.938; with AGGTACGGG, 1.02; with ACGCCTGAGG, 1.04.
For ACCTCACCTA, the switch fluorescence ratio came out at 1.36.
Regarding GGTATACG, the switch fluorescence ratio was determined as 0.959.
In the case of CAATTAAGGC, the switch fluorescence ratio is 0.973.
Consider TGCGTAACTT, for which the switch fluorescence ratio is 1.04.
With TTAGAAAGCT, the switch fluorescence ratio worked out at 0.995.
As for TTAGTTAAGG, the switch fluorescence ratio is 0.981.
With TCTAAAATTC the figure was 1.05.
